# The campaign covered roughly 310,000 compounds. About 14,000 (4.5%) showed an effect of 50% or more. Effects have a minus sign here. The list shows a part of the results.
# Molecular target: human ether-à-go-go-related gene (hERG) potassium channel (human, UniProt Q12809)
# Test: primary screen, population patch clamp on CHO cells stably expressing hERG
# 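Also: peak tail current of the secondary pulse compared with the same well before compound.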
# Chain of human ether-à-go-go-related gene (hERG) potassium channel (Q12809 whole entry, looked up): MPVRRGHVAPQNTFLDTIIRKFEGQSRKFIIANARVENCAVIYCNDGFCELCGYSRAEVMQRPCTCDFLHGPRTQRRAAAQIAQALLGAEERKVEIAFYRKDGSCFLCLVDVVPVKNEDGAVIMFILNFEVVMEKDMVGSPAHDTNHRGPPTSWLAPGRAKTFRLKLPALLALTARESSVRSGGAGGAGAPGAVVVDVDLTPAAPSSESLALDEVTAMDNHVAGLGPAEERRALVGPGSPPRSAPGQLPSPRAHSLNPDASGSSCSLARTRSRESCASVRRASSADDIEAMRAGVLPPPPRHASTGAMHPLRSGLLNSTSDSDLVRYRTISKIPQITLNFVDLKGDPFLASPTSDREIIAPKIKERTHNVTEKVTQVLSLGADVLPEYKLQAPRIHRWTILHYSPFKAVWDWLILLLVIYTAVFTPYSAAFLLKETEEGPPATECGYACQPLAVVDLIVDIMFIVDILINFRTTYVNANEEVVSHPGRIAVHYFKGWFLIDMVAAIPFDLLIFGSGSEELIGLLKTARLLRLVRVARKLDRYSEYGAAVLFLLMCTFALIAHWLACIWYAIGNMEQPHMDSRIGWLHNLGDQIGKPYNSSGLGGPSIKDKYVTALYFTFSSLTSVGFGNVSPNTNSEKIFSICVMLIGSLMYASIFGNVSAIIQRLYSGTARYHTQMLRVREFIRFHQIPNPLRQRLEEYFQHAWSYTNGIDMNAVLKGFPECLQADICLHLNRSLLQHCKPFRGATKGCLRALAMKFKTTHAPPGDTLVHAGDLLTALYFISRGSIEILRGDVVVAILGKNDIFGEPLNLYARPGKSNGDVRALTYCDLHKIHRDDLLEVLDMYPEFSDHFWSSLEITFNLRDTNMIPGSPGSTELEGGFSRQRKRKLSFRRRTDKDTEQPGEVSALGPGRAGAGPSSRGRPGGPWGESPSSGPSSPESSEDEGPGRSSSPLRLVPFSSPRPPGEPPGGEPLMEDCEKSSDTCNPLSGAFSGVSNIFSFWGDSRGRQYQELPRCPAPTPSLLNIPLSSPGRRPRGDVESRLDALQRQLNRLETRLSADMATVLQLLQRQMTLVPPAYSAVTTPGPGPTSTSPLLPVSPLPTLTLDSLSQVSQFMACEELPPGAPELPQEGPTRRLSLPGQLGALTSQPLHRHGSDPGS
row,Compound,"hERG current change (%, negative = inhibition) at 10uM"
1,O=S(=O)(c1ccc(Cl)cc1)N1CCN(C(=S)Nc2ccccc2F)CC1,2.92%
2,O=C(COC(=O)c1cc(-c2ccco2)nc2ccccc12)NCc1ccccc1,-11.3%
3,Cc1ccc(-c2[nH]ncc2/C=N/n2c(COc3ccccc3C)nc3ccccc3c2=O)cc1,-5.26%
4,O=C(CC1Nc2ccccc2NC1=O)c1ccccc1 (centres unmarked),-2.01%
5,CC(=O)N1CCc2cc(S(=O)(=O)NCCC(=O)Nc3cccc(C)c3C)ccc21,0.058%
6,CSCCC(NS(=O)(=O)c1ccc(C)cc1)C(=O)N1CCCCCCC1 (centres unmarked),0.736%
7,CN(c1cccc(NC(=O)CN2C(=O)c3ccccc3S2(=O)=O)c1)S(C)(=O)=O,-39.6%
8,COc1ccc(NC(=O)C#Cc2ccccc2)cc1OC,-4.68%
9,O=C(Nc1c2c(nn1-c1cccc(Cl)c1)CS(=O)(=O)C2)c1ccc2c(c1)OCO2,-18.5%
10,O=C(CSc1n[nH]c(-c2ccccn2)n1)Nc1ccc(F)cc1,-1.32%
11,N#Cc1nc(-c2ccc(OCc3ccccc3)cc2)oc1NCCN1CCOCC1,21.5%
12,NS(=O)(=O)c1ccc(NC(=O)CSC2=NC(=O)C(c3ccccc3)C(=O)N2)cc1 (centres unmarked),3.54%
13,O=C(O)c1cccc(S(=O)(=O)Nc2ccc(O)c(Sc3nc4ccccc4s3)c2)c1,30.8%
14,Cc1ccc(S(=O)(=O)c2ccc(C)cc2)cc1,12.1%
15,Cc1ccccc1/C=N/n1c(-c2cc(-c3ccccc3)n[nH]2)n[nH]c1=S,11.4%
16,CC(C)(C)C(=O)NC(=O)Nc1ccccc1C(F)(F)F,24.1%
17,COc1ccc(C(=O)Nc2cc(C(F)(F)F)ccc2-n2cnc3ccccc32)cc1,-31.5%
18,COc1ccc(NC(=O)c2ccccc2NS(=O)(=O)c2ccc(CNC(C)=O)cc2)c(OC)c1,16.4%
19,CC(=O)c1nnn(-c2ccc([N+](=O)[O-])cc2C)c1C,-7.85%
20,CN(C)[C@H]1N(C(=O)c2ccc(Br)cc2)N=C2c3ccccc3S(=O)(=O)N21,-28.9%
21,COc1ccc(C2C(C#N)=C(N)Oc3cc(N)ccc32)cc1OC (centres unmarked),-4.68%
22,Cl.c1ccc2c3c(c(CN4CCCCC4)cc2c1)COC3,-24.1%
23,CC1CC(C)(C)NC(=S)N1CCCC(=O)Nc1ccccc1F (centres unmarked),10.6%

row,Compound,"hERG current change (%, negative = inhibition) at 10uM"
1,COc1ccc(S(=O)(=O)Nc2nnc(C)s2)cc1,-3.71%
2,CC(C(=O)Nc1ccc2c(c1)OCCO2)N1Cc2ccccc2C1=O (centres unmarked),13.7%
3,CC(=O)c1ccccc1-c1csc2ncnc(Sc3nnnn3C)c12,-1.79%
4,COc1cc2c(cc1OC)CN(C(=O)Cc1ccccc1)CC2,-20.1%
5,O=C(COc1ccccc1C(=O)Nc1ccccc1)c1ccc(Br)cc1,-1%
6,NS(=O)(=O)c1ccc(NC(=O)COC(=O)c2ccc3c(c2)OCCO3)cc1,24%
7,CCn1c2ccccc2c2cc(/C=N/n3cnnc3)ccc21,-13.4%
8,Nc1nonc1-n1nnc(C(=O)N/N=C/c2ccccc2F)c1CN1CCOCC1,-6%
9,Cc1ccc(C2(C)NC(=O)N(CC(=O)N3c4ccccc4NC(=O)CC3C)C2=O)cc1 (centres unmarked),11%
10,CCCCC(=O)Nc1ccc(NC(=O)c2cc(OC)c(OC)c(OC)c2)cn1,6.22%
11,Cc1ncn(-c2ccccc2)c1-c1ccccc1,-6.91%
12,Cn1c(CCC(=O)OCC(=O)NCC(F)(F)F)nc(=O)c2ccccc21,8.92%
13,O=C(CN(C(=O)c1csnn1)c1ccc(F)c(Cl)c1)NC1CCCCC1,19.3%
14,CC1=CC(C)(C)N2C(=O)C3(SCC(=O)N3c3ccc(F)cc3)c3cc(C)cc1c32 (centres unmarked),-6.42%
15,COc1ccc(Cl)cc1S(=O)(=O)N1CCN=C1c1ccccc1,-5.83%
16,CC(=O)NS(=O)(=O)c1ccc(NC(=S)NC(=O)C(C)C)cc1,12.9%
17,O=C(Cn1ncc2c([nH]c3ccccc32)c1=O)NCCCN1CCN(c2ccccc2)CC1,-21.5%
18,Cc1cc(C)cc(NC(=O)c2ccc(CSc3nnc(C)s3)cc2)c1,6.51%
19,Cc1cc(C)cc(NC(=O)N2CCc3ccccc3C2)c1,11.7%
20,CN(Cc1nccn1C)C(=O)c1ccc(OC2CCN(CCc3ccccc3)CC2)cc1,-38.3%
21,Cc1cc(NCc2ccccn2)n2ncc(-c3ccccc3)c2n1,-8.46%
22,Cc1cccc(NS(=O)(=O)c2cccc([N+](=O)[O-])c2)n1,4.28%
23,NC1C2CN3CCN(C2)CC1(c1ccccc1)C3 (centres unmarked),30.9%

row,Compound,"hERG current change (%, negative = inhibition) at 10uM"
1,O=C(c1ccccc1)N1CCc2[nH]nc(-c3ccccc3)c2C1,-4.26%
2,CC(=O)Nc1ccc(C(=O)COC(=O)c2cccs2)c(F)c1,7.71%
3,CCn1ncc(CN2CCCC(C(=O)Nc3cccc(-c4cc5ccccc5[nH]4)c3)C2)c1C (centres unmarked),-56.7%
4,O=c1c(CN2CCN(c3ccccn3)CC2)coc2ccccc12,-17.8%
5,O=C(Cc1c[nH]c2ccccc12)Nc1ccc(N2CCOCC2)cc1,2.86%
6,Cn1c(CC(=O)NN)c(Sc2ccccc2)c2ccccc21,4.62%
7,Cc1ccc(Nc2nc(=O)[nH]nc2C)cc1,-9.45%
8,COc1ccc(C(=S)N2CCCC2)cc1OC,2.36%
9,Cc1cccc(COc2ccc(/C=N/NC(=O)c3nnn(-c4nonc4N)c3C)cc2)c1,15.3%
10,CCN(CC)CCCNC(=O)C1c2ccccc2C(=O)N1Cc1ccc(C)cc1 (centres unmarked),-20.5%
11,CN(C)CCNc1nc2c(c(=O)[nH]c(=O)n2C)n1CC(O)COc1ccc(Cl)cc1Cl (centres unmarked),-55%
12,O=S(=O)(Nc1ccc2c(c1)OCO2)c1ccccc1,-36.1%
13,Cc1cccc(C)c1NC(=O)COC(=O)c1cc(-c2cccnc2)nc2ccccc12,-1.68%
14,O=C(CSc1ccc(-c2ccco2)nn1)NCCc1ccccc1,-12.4%
15,N#CCCN(Cc1cccs1)C(=O)c1ccc(Cl)cc1,-6.3%
16,Cc1c(C(=O)Nc2c(F)cccc2F)sc2ncnc(N3CCN(c4ccccc4)CC3)c12,-12.2%
17,CCC(=O)Nc1ccc(C(=O)COC(=O)Cc2ccsc2)cc1,-6.06%
18,Cc1cc(C)cc(NC(=O)C2CCCN2S(=O)(=O)c2ccc3c(c2)C(C)(C)C(=O)N3C)c1 (centres unmarked),-38.7%
19,Cc1ccc(S(=O)(=O)N2CCN(c3ccc(S(=O)(=O)N4CCOCC4)cn3)CC2)cc1,12.2%
20,O=C(CC(=O)NCc1ccc(Cl)cc1)NCc1ccc(Cl)cc1,4.44%
21,CCN(C(=O)CSc1nnc(-c2ccccc2)n1C)C1CCS(=O)(=O)C1 (centres unmarked),0.82%
22,Cc1noc(C)c1C(=O)OCC(=O)c1c(N)n(CC(C)C)c(=O)n(C)c1=O,-24.5%
23,CN1CCN(c2ccc(CNC(=O)c3ccco3)cc2)CC1,10.7%

row,Compound,"hERG current change (%, negative = inhibition) at 10uM"
1,COc1ccc(S(=O)(=O)NCCN2CCOCC2)c2ccccc12,2.52%
2,COc1ccc(C2(C)NC(=O)N(CC(=O)Nc3ccc(Br)c(C)c3)C2=O)cc1OC (centres unmarked),2.17%
3,CCOC(=O)C1(CCOC)CCN(Cc2cc3ccccc3s2)CC1,-22.5%
4,O=C(Nc1cccnc1)Nc1ccc(Cl)cc1Cl,15%
5,CCOC(=O)C1(CCOC)CCN(Cc2ccc3nonc3c2)CC1,-10.5%
6,Cc1ccc2[nH]c3nc(NN)nnc3c2c1,14.5%
7,S=c1[nH]nc2n1CCCN2,12.7%
8,Cc1ccc(C(=O)Nc2cccc(C(=O)NCc3ccco3)c2)cc1,-10.6%
9,O=C(NNC(=O)c1cnccc1C(F)(F)F)c1ccc(Cl)cc1,11.1%
10,CCCCc1nc(SCC(=O)Nc2nnc(CCCC)s2)n[nH]1,-18%
11,Cc1ccc(C(=O)N/C(=C\c2cccs2)C(=O)NCc2cccnc2)cc1,-58%
12,CC(=O)c1ccc(OCCCC(=O)N(CCC2=CCCCC2)c2c(N)n(Cc3ccccc3)c(=O)[nH]c2=O)cc1,-21.6%
13,CC(O)CNCCCOc1cccc(Oc2ccccc2)c1.O=C(O)C(=O)O (centres unmarked),-10.9%
14,N#C/C(=C(/O)COC(=O)CCc1ccc(S(=O)(=O)N2CCOCC2)cc1)c1nc2ccccc2[nH]1,3.02%
15,CCOC(=O)N1CCN(C(=O)Cc2ccc(C)cc2)CC1,10.8%
16,COC(=O)c1nc(N)sc1-c1ccc(OC)cc1,10.3%
17,O=C(CSc1ccc(Cl)cc1)Nc1ccc(C2SCCS2)cc1,3.84%
18,Cc1cc(NC(=O)c2nn3cccnc3c2Cl)no1,6.12%
19,O=C(NCC(=O)N1CCN(c2ccccc2)CC1)c1ccco1,3.36%
20,CCOc1ccc(NC(=O)CN(C)C(=O)Cc2c[nH]c3ccccc23)cc1OCC,-22.8%
